# In the supplement of paper PMC8728848:
# The other results are listed elsewhere or left out.
# B1: DGL (Dioclea grandiflora), P08902 (protein)
# chain: ADTIVAVELDSYPNTDIGDPNYPHIGIDIKSIRSKSTARWNMQTGKVGTVHISYNSVAKRLSAVVSYSGSSSTTVSYDVDLNNVLPEWVRVGLSATTGLYKETNTILSWSFTSKLKTNSIADENSLHFSFHKFSQNPKDLILQGDAFTDSDGNLELTKVSSSGDPQGNSVGRALFYAPVHIWESSAVVASFDATFTFLIKSPDREPADGITFFIANTDTSIPSGSGGRLLGLFPDAN
# Key:
# Assay in all cases: glycan array binding signal (z-score within array); higher = stronger binding
# Details in all cases: glycan notation: IUPAC condensed, linker removed
# Neu5Ac(a2-6)Gal(b1-4)Glc = biological target: Neu5Ac(a2-6)Gal(b1-4)Glc
# Procedure, shortened: (§1)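 Arrays were curated from the Consortium for Functional Glycomics database, 3228 in total, and kept only where the protein sequence was available. Binding is expressed as a within-array Z-score. This score was averaged across arrays of the same protein sequence at different concentrations or buffers and across linkers, and negative values can be read as non-binding.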
# [1] = biological target: Neu5Ac(a2-6)Gal(b1-4)GlcNAc
# Procedure, shortened: as §1
# [2] = biological target: Neu5Ac(a2-6)Gal(b1-4)GlcNAc(b1-2)Man(a1-3)Man(b1-4)GlcNAc(b1-4)GlcNAc
# Procedure, shortened: as §1
# [3] = biological target: Neu5Ac(a2-6)Gal(b1-4)GlcNAc(b1-2)Man(a1-3)[Gal(b1-4)GlcNAc(b1-2)Man(a1-6)]Man(b1-4)GlcNAc(b1-4)GlcNAc
# Procedure, shortened: as §1
# [4] = biological target: Neu5Ac(a2-6)Gal(b1-4)GlcNAc(b1-2)Man(a1-3)[GlcNAc(b1-2)Man(a1-6)]Man(b1-4)GlcNAc(b1-4)GlcNAc
# Procedure, shortened: as §1
# [5] = biological target: Neu5Ac(a2-6)Gal(b1-4)GlcNAc(b1-2)Man(a1-3)[GlcNAc(b1-2)Man(b1-4)GlcNAc(b1-2)Man(a1-6)]Man(b1-4)GlcNAc(b1-4)GlcNAc
# Procedure, shortened: as §1
# [6] = biological target: Neu5Ac(a2-6)Gal(b1-4)GlcNAc(b1-2)Man(a1-3)[Man(a1-6)]Man(b1-4)GlcNAc(b1-4)GlcNAc
# Procedure, shortened: as §1
# [7] = biological target: Neu5Ac(a2-6)Gal(b1-4)GlcNAc(b1-2)Man(a1-3)[Neu5Ac(a2-6)Gal(b1-4)GlcNAc(b1-2)Man(a1-6)]Man(b1-4)GlcNAc(b1-4)GlcNAc
# Procedure, shortened: as §1
# [8] = biological target: Neu5Ac(a2-6)Gal(b1-4)GlcNAc(b1-2)Man(a1-6)Man(b1-4)GlcNAc(b1-4)GlcNAc
# Procedure, shortened: as §1
# [9] = biological target: Neu5Ac(a2-6)Gal(b1-4)GlcNAc(b1-2)Man(a1-6)[Gal(b1-4)GlcNAc(b1-2)Man(a1-3)]Man(b1-4)GlcNAc(b1-4)GlcNAc
# Procedure, shortened: as §1
# [10] = biological target: Neu5Ac(a2-6)Gal(b1-4)GlcNAc(b1-2)Man(a1-6)[GlcNAc(b1-2)Man(a1-3)]Man(b1-4)GlcNAc(b1-4)GlcNAc
# Procedure, shortened: as §1
# [11] = biological target: Neu5Ac(a2-6)Gal(b1-4)GlcNAc(b1-2)Man(a1-6)[Man(a1-3)]Man(b1-4)GlcNAc(b1-4)GlcNAc
# Procedure, shortened: as §1
# [12] = biological target: Neu5Ac(a2-6)Gal(b1-4)GlcNAc(b1-3)Gal(b1-3)GlcNAc
# Procedure, shortened: as §1
# [13] = biological target: Neu5Ac(a2-6)Gal(b1-4)GlcNAc(b1-3)Gal(b1-4)GlcNAc
# Procedure, shortened: as §1
# [14] = biological target: Neu5Ac(a2-6)Gal(b1-4)GlcNAc(b1-3)Gal(b1-4)GlcNAc(b1-3)Gal(b1-4)GlcNAc
# Procedure, shortened: as §1
# [15] = biological target: Neu5Ac(a2-6)Gal(b1-4)GlcNAc(b1-3)Gal(b1-4)[Fuc(a1-3)]GlcNAc(b1-3)Gal(b1-4)[Fuc(a1-3)]GlcNAc
# Procedure, shortened: as §1
# [16] = biological target: Neu5Ac(a2-6)Gal(b1-4)GlcNAc(b1-3)GalNAc
# Procedure, shortened: as §1
# [17] = biological target: Neu5Ac(a2-6)Gal(b1-4)GlcNAc6S
# Procedure, shortened: as §1
# Neu5Ac(a2-6)GalNAc = biological target: Neu5Ac(a2-6)GalNAc
# Procedure, shortened: as §1
# [18] = biological target: Neu5Ac(a2-6)GalNAc(b1-4)GlcNAc
# Procedure, shortened: as §1
# [19] = biological target: Neu5Ac(a2-6)GlcNAc(b1-4)GlcNAc
# Procedure, shortened: as §1
# [20] = biological target: Neu5Ac(a2-6)GlcNAc(b1-4)GlcNAc(b1-4)GlcNAc
# Procedure, shortened: as §1
# Neu5Ac(a2-8)Neu5Ac = biological target: Neu5Ac(a2-8)Neu5Ac
# Procedure, shortened: as §1
# [21] = biological target: Neu5Ac(a2-8)Neu5Ac(a2-3)Gal(b1-4)Glc
# Procedure, shortened: as §1
# [22] = biological target: Neu5Ac(a2-8)Neu5Ac(a2-3)[GalNAc(b1-4)]Gal(b1-4)Glc
# Procedure, shortened: as §1
# [23] = biological target: Neu5Ac(a2-8)Neu5Ac(a2-8)Neu5Ac
# Procedure, shortened: as §1
# [24] = biological target: Neu5Ac(a2-8)Neu5Ac(a2-8)Neu5Ac(a2-3)Gal(b1-4)Glc
# Procedure, shortened: as §1
# [25] = biological target: Neu5Ac(a2-8)Neu5Ac(a2-8)Neu5Ac(a2-3)[GalNAc(b1-4)]Gal(b1-4)Glc
# Procedure, shortened: as §1
# [26] = biological target: Neu5Ac(a2-8)Neu5Ac(a2-8)Neu5Ac(a2-8)Neu5Ac(a2-3)[GalNAc(b1-4)]Gal(b1-4)Glc
# Procedure, shortened: as §1
# [27] = biological target: Neu5Ac(b2-6)Gal(b1-4)GlcNAc
# Procedure, shortened: as §1
# Neu5Ac(b2-6)GalNAc = biological target: Neu5Ac(b2-6)GalNAc
# Procedure, shortened: as §1
# [28] = biological target: Neu5Ac9Ac(a2-3)Gal(b1-3)GlcNAc
# Procedure, shortened: as §1
# [29] = biological target: Neu5Ac9Ac(a2-3)Gal(b1-4)GlcNAc
# Procedure, shortened: as §1
# [30] = biological target: Neu5Ac9Ac(a2-6)Gal(b1-4)GlcNAc
# Procedure, shortened: as §1
# [31] = biological target: Neu5Gc(a2-3)Gal(b1-3)GlcNAc
# Procedure, shortened: as §1
# [32] = biological target: Neu5Gc(a2-3)Gal(b1-3)[Fuc(a1-4)]GlcNAc
# Procedure, shortened: as §1
# Neu5Gc(a2-3)Gal(b1-4)Glc = biological target: Neu5Gc(a2-3)Gal(b1-4)Glc
# Procedure, shortened: as §1
# [33] = biological target: Neu5Gc(a2-3)Gal(b1-4)GlcNAc
# Procedure, shortened: as §1
# [34] = biological target: Neu5Gc(a2-3)Gal(b1-4)[Fuc(a1-3)]GlcNAc
# Procedure, shortened: as §1
# [35] = biological target: Neu5Gc(a2-6)Gal(b1-4)GlcNAc
# Procedure, shortened: as §1
# Neu5Gc(a2-6)GalNAc = biological target: Neu5Gc(a2-6)GalNAc
# Procedure, shortened: as §1
# [36] = biological target: Neu5Gc(b2-6)Gal(b1-4)GlcNAc
# Procedure, shortened: as §1
binder,measurement,setting,value
B1,glycan array binding signal (z-score),Neu5Ac(a2-6)Gal(b1-4)Glc,-0.175
same,glycan array binding signal (z-score),[1],-0.176
same,glycan array binding signal (z-score),[2],-0.179
same,glycan array binding signal (z-score),[3],-0.178
same,glycan array binding signal (z-score),[4],0.053
same,glycan array binding signal (z-score),[5],-0.172
same,glycan array binding signal (z-score),[6],-0.131
same,glycan array binding signal (z-score),[7],-0.173
same,glycan array binding signal (z-score),[8],-0.172
same,glycan array binding signal (z-score),[9],-0.182
same,glycan array binding signal (z-score),[10],-0.165
same,glycan array binding signal (z-score),[11],-0.159
same,glycan array binding signal (z-score),[12],-0.173
same,glycan array binding signal (z-score),[13],-0.178
same,glycan array binding signal (z-score),[14],-0.178
same,glycan array binding signal (z-score),[15],-0.171
same,glycan array binding signal (z-score),[16],-0.167
same,glycan array binding signal (z-score),[17],-0.179
same,glycan array binding signal (z-score),Neu5Ac(a2-6)GalNAc,-0.174
same,glycan array binding signal (z-score),[18],-0.185
same,glycan array binding signal (z-score),[19],-0.172
same,glycan array binding signal (z-score),[20],-0.177
same,glycan array binding signal (z-score),Neu5Ac(a2-8)Neu5Ac,-0.182
same,glycan array binding signal (z-score),[21],-0.178
same,glycan array binding signal (z-score),[22],-0.178
same,glycan array binding signal (z-score),[23],-0.175
same,glycan array binding signal (z-score),[24],-0.176
same,glycan array binding signal (z-score),[25],-0.177
same,glycan array binding signal (z-score),[26],-0.176
same,glycan array binding signal (z-score),[27],-0.177
same,glycan array binding signal (z-score),Neu5Ac(b2-6)GalNAc,-0.171
same,glycan array binding signal (z-score),[28],-0.172
same,glycan array binding signal (z-score),[29],-0.171
same,glycan array binding signal (z-score),[30],-0.171
same,glycan array binding signal (z-score),[31],-0.177
same,glycan array binding signal (z-score),[32],-0.179
same,glycan array binding signal (z-score),Neu5Gc(a2-3)Gal(b1-4)Glc,-0.17
same,glycan array binding signal (z-score),[33],-0.178
same,glycan array binding signal (z-score),[34],-0.181
same,glycan array binding signal (z-score),[35],-0.174
same,glycan array binding signal (z-score),Neu5Gc(a2-6)GalNAc,-0.17
same,glycan array binding signal (z-score),[36],-0.172
